# Results taken from PubChem BioAssay AID995 (National Center for Advancing Translational Sciences (NCATS), 2007).
# Hit rate of the full screen: of about 72,000 compounds, about 710 (0.99%) were called active. The shares of active, inactive and inconclusive entries below differ from those in the screen. Calls follow the shape of the dose curve; as a rule, active = well fitted inhibition curve with a large enough effect; inconclusive = small, poorly fitted or top-dose-only effect; inactive = no such curve, though single readings can be large or run the other way. Potencies of inconclusive entries are left out as doubtful fits.
# Experiment: qHTS Assay for Inhibitors of the ERK Signaling Pathway using a Homogeneous Screening Assay; also: nearly all actives have a fitted effect of over 55% in size
# Conditions: HEK293-V1b, vasopressin-stimulated pERK AlphaScreen; activity, negative = inhibition: at 57.5 µM (top of the series) unless noted
# How it was run: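 Phosphorylated ERK1/2 detected via AlphaScreen bead proximity in lysates of V1b-expressing HEK293 cells given 25 nM vasopressin for 5 min after 30 min compound exposure (37 °C). AC50 from Hill equation; basal DMSO 0%, vasopressin 100%.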
# % is scaled to controls: 0 for no effect and ±100 for the full control effect; potency is read from the fitted curve at half-maximal effect; tags tell the direction and shape of the fitted curve.
Structure (SMILES),"activity, negative = inhibition",Potency
COc1ccc(Cl)cc1NC(=O)c1ccco1,inactive: -3.55%,
CCn1cc(C(=O)NCCCN2CCC(C)CC2)c(=O)c2cc(S(=O)(=O)N3CCCC3)ccc21,,"inconclusive [inhibitor, single point]"
CCn1cc(Br)c(C(=O)Nc2cccc(SC)c2)n1,,"inconclusive [inhibitor, partial curve]"
Cn1cnnc1SCC(=O)c1c[nH]c2ccccc12,,"inconclusive [inhibitor, single point]"
C=CCn1c(SCc2ccccc2C#N)nnc1-c1cc(Br)ccc1O,,"inconclusive [inhibitor, single point]"
C=CCOC(=O)c1[nH]c2c(c1C)C(=O)CC(c1cc(OC)c(OC)c(OC)c1)C2 (configuration not stated),,"inconclusive [inhibitor, single point]"
CN(C)c1ccc(-n2cc3c(=O)n(C)c(=O)n(C)c3c2)cc1,,"inconclusive [inhibitor, partial curve]"
O=C(CS(=O)(=O)Cc1ccccc1)Nc1nc2ccccc2s1,,active: 25.1 µM
CCOc1ccc(-c2cn(S(=O)(=O)c3cccc4nsnc34)nc2N)cc1,,"inconclusive [inhibitor, single point]"
CCCCCCCC/C=C\CCCCCCCC(=O)NCCc1ccc(O)c(O)c1,,"inconclusive [inhibitor, partial curve, poor fit]"
CC(C)CN(CC(C)C)C(=O)CS(=O)(=O)Cc1ccccc1,inactive: -12.1%,
O=C1c2ccccc2C(Nc2ccc3c(c2)OCCO3)N1Cc1ccc2c(c1)OCO2 (configuration not stated),,"inconclusive [inhibitor, single point]"
COc1ccc(-c2nc3ccccc3s2)cc1O,,"inconclusive [inhibitor, partial curve]"
COc1cccc(C(=O)CN2C(=O)C(C)(C)Oc3ccc(C(=O)N4CCCCCC4)cc32)c1,,"inconclusive [inhibitor, partial curve, poor fit]"
CC(C)(C)NC(=O)CSc1ncnc2c1nnn2Cc1ccccc1Cl,,"inconclusive [inhibitor, single point]"
c1cncc(-c2nc3ccccn3c2Nc2ccc3c(c2)OCCO3)c1,,"inconclusive [inhibitor, single point]"
Clc1ccccc1C(Nc1cnccn1)Nc1cnccn1,inactive: 13.7% [at 11.5 µM],
CC(=O)c1c(C)[nH]c(C(=O)NCc2ccccc2Cl)c1C,,"inconclusive [inhibitor, partial curve]"
CCn1c(=S)sc2c(=O)n(-c3ccccc3)c(SC)nc21,,"inconclusive [inhibitor, partial curve]"
Cc1cc(C)cc(OCC(=O)Nc2cccc(-c3nnc(-c4ccco4)o3)c2)c1,,"inconclusive [inhibitor, single point]"
CCCC(OC(=O)CN1C(=O)COc2ccccc21)C(=O)NC1CCCC1 (configuration not stated),inactive: -7.79%,
Fc1cccc(Nc2cc(-n3cccn3)ncn2)c1,,"inconclusive [inhibitor, partial curve]"
CCC(C)Nc1nc2c(c(=O)n(C)c(=O)n2C)n1Cc1ccc(F)cc1 (configuration not stated),,"inconclusive [inhibitor, single point]"
NC(=O)CSc1oc(-c2cccs2)nc1S(=O)(=O)c1ccccc1,,"inconclusive [inhibitor, partial curve]"

Structure (SMILES),"activity, negative = inhibition",Potency
CCOC(=O)C1CCCN(C(=O)Cn2sc3nc(C)cc(C)c3c2=O)C1 (configuration not stated),,"inconclusive [inhibitor, single point]"
COc1ccc(N2CCN(C(=O)c3cc4c(-c5ccc(Cl)cc5)nn(C)c4s3)CC2)cc1,,"inconclusive [inhibitor, single point]"
COc1cc(CN(C)CC(=O)c2[nH]c(C)c(C(C)=O)c2C)ccc1OC(F)F,,"inconclusive [inhibitor, full curve]"
COc1ccc(CNC(=O)c2ccc3nccnc3c2)cc1,inactive: 4.71%,
OCCn1c(-c2ccc3c(c2)OCO3)csc1=Nc1ccccc1,,"inconclusive [inhibitor, partial curve]"
Cc1noc(C)c1-c1nccc(NCc2cccs2)n1,,"inconclusive [inhibitor, single point]"
CNc1ccnc(-c2c(C)noc2C)n1,inactive: 12.8%,
NC(=O)NC1CCCc2c1[nH]c1ccc(Cl)cc21 (configuration not stated),,"inconclusive [inhibitor, single point]"
Cc1ccc(S(=O)(=O)N(C)CC(=O)Nc2nc3ccccc3s2)cc1,,"inconclusive [inhibitor, single point]"
COc1ccc(CN2CCN(c3ccccn3)CC2)cc1OCc1ccccc1,,"inconclusive [inhibitor, partial curve]"
CCOc1ccc2nc(SCC(=O)NCc3ccco3)sc2c1,,"inconclusive [inhibitor, partial curve, poor fit]"
CC(C)(C)c1ccc(C(=O)/C=C2\NC(=O)CS2)cc1,,"inconclusive [inhibitor, single point]"
COc1ccc(C2c3c(oc4ccccc4c3=O)C(=O)N2CCN2CCOCC2)cc1OC (configuration not stated),inactive: -5.42%,
O=C(O)[C@@H]1CCCN1,inactive: 24.5% [at 11.5 µM],
COC(=O)c1cc(OC)c(OC)cc1NC(=O)c1ccc(Br)o1,inactive: -14.5%,
CCN(CC)S(=O)(=O)c1cc(C(=O)Nc2ccncc2)ccc1Cl,,"inconclusive [inhibitor, partial curve]"
CCOc1ccc(Nc2oc(Cc3ccccc3)nc2C#N)cc1,,"inconclusive [inhibitor, partial curve]"
CCNc1nc(N)c(C(=O)c2ccc(Cl)s2)s1,,active: 3.16 µM
c1coc(C2Nc3cccc4cccc(c34)N2)c1,,"inconclusive [inhibitor, partial curve]"
O=S(=O)(c1ccc(SCCO)nc1)N1CCCC1,inactive: -15%,
COCCn1c(=O)c(-c2cccc(C#N)c2)nc2cnc(Oc3cccc(Cl)c3)nc21,,"inconclusive [inhibitor, partial curve]"
CC(C)=CCC[C@](C)(O)C1CC=C(C)CC1 (some centres not stated),inactive: 40%,
Cc1cc(C(=O)Nc2cc(C)n(Cc3ccc(Cl)cc3)n2)no1,inactive: -7.28%,
CC1=CC(C)(C)Nc2ccccc21,,inactive

Structure (SMILES),"activity, negative = inhibition",Potency
NC[C@H]1O[C@H](n2cnc3c(N)ncnc32)C[C@@H]1O,inactive: 9.14% [at 11.5 µM],
Cc1sc2ncnc(SCC#N)c2c1C,,"inconclusive [inhibitor, partial curve]"
Cn1ncc2c(Nc3ccc4ccccc4c3)ncnc21,,"inconclusive [inhibitor, partial curve]"
COc1ccc(-c2cc(-c3ccccc3)nc(N3CCCC3)n2)cc1OC,inactive: 30.4%,
Cc1cccc(-c2nc3ccccc3c3nncn23)c1,,"inconclusive [inhibitor, partial curve]"
COc1ccc(NC(=O)CSc2nnc(-c3ccccc3)n2Cc2ccco2)c(OC)c1,inactive: -18.5%,
N#CC1=C2SCN(Cc3ccco3)CN2C(=O)CC1c1cccc2ccccc12 (configuration not stated),,"inconclusive [inhibitor, single point]"
COC(=O)c1ccc(CSCC(=O)Nc2cc(OC)cc(OC)c2)o1,,"inconclusive [inhibitor, partial curve]"
CCOc1cc(C(=O)OCC(=O)c2c(C)[nH]c3ccccc23)ccc1OCC(=O)N1CCOCC1,,"inconclusive [inhibitor, partial curve]"
CCOc1ccc(-c2nc(=S)[nH][nH]2)cc1,inactive: 12.3%,
COc1ccc(NC(=O)Nc2ccc3c(c2)N(C)C(=O)CS3)cc1OC,,active: 25.1 µM
Cc1cc(N2C(=O)CC(N3CCN(c4ccc(C(=O)c5cccs5)cc4)CC3)C2=O)no1 (configuration not stated),,"inconclusive [inhibitor, partial curve]"
COc1ccc(C2C(C#N)=C(N)OC(C(C)(C)C)=C2C#N)cc1OC (configuration not stated),,"inconclusive [inhibitor, partial curve]"
COc1ccc2c(c1)Sc1ccccc1N2CCN(C)C,,"inconclusive [inhibitor, partial curve]"
O=C1c2ccccc2C(=O)N1CCCc1nc2ccccc2c(=O)n1Cc1ccco1,,"inconclusive [inhibitor, single point]"
COc1cc2c(cc1OC)CN(c1ccc(-c3ccccc3OC)nn1)CC2,,"inconclusive [inhibitor, partial curve]"
Cc1ccnc(-n2sc3ccccc3c2=O)n1,,active: 39.8 µM
COC(=O)Cn1cnc2c(C#N)c3n(c2c1=O)CCCCC3,,"inconclusive [inhibitor, single point]"
CN=c1scc(C)n1/N=C/c1ccc2c(c1)OCO2,,"inconclusive [inhibitor, partial curve]"
Nc1nc(CN2CCN(c3ccccn3)CC2)nc(Nc2ccc(F)cc2)n1,,"inconclusive [inhibitor, single point]"
O=C(CSc1nnc(-c2ccncc2)n1Cc1ccco1)c1ccc(Cl)cc1,inactive: -9.68%,
CCN1CCN(Cc2c(C)[nH]c3ccc(C(=O)OC)cc3c2=O)CC1,,"inconclusive [inhibitor, single point]"
CCN(CC)CCCN1C(=O)C(O)=C(C(=O)c2cc3ccccc3o2)C1c1ccccn1 (configuration not stated),,"inconclusive [inhibitor, partial curve, poor fit]"
COc1ccc(C(=O)Nc2ccc3oc(-c4cccc(F)c4)nc3c2)cc1OC,,"inconclusive [inhibitor, single point]"
